Laboratory results as given in article PMC4336329 (PLoS ONE, 2015).
Out of some 310,000 compounds screened, about 14,000 (4.5%) showed an effect of 50% or more. Effects have a minus sign here. The list shows a part of the results.

The compounds below were run against human ether-à-go-go-related gene (hERG) potassium channel (human, UniProt Q12809) (assay: primary screen, population patch clamp on CHO cells stably expressing hERG).
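Further: peak tail current of the secondary pulse compared with the same well before compound.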

human ether-à-go-go-related gene (hERG) potassium channel, sequence (Q12809 whole entry, looked up): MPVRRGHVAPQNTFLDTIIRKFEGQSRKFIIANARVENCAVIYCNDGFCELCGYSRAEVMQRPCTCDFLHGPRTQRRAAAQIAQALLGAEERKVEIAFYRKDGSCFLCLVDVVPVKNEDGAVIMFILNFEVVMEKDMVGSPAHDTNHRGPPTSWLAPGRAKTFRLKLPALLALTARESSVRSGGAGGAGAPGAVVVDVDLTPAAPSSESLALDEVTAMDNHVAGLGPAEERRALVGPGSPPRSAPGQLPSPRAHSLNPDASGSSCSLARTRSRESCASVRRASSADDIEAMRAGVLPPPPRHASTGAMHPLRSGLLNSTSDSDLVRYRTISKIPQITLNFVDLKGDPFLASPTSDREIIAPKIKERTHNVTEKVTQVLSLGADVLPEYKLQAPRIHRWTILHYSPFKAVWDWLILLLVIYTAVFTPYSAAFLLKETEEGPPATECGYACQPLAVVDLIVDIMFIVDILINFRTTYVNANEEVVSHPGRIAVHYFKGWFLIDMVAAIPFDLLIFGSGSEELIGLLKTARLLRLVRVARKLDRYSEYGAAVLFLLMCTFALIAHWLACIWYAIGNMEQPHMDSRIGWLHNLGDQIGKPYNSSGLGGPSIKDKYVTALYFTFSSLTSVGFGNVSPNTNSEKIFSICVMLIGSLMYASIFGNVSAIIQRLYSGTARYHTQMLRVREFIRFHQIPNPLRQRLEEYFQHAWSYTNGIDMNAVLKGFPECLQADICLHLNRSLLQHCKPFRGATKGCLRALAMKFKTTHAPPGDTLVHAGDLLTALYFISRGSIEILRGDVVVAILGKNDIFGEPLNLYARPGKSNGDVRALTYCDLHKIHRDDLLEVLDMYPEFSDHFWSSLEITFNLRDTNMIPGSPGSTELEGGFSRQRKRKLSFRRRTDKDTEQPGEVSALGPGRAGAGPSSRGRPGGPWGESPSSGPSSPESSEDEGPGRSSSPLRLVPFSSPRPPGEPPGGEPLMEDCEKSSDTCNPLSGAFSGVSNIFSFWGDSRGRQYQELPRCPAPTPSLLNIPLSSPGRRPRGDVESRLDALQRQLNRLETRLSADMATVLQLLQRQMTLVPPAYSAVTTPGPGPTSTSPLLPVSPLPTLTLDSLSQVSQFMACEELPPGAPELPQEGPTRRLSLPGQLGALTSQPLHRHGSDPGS

Row | Compound | hERG current change (%, negative = inhibition) at 10uM
1 | Cc1cc(OC(C)C(=O)NCC2CCCO2)cc(C)c1Cl (centres unmarked) | 8.45%
2 | Cc1cnn(C(=S)NCC2CCCO2)c1 (centres unmarked) | 5.26%
3 | S=C(c1ccc(-c2ccc(Cl)cc2)o1)N1CCCCC1 | 10.1%
4 | Cc1cc(C(C#N)c2cccc(Cl)c2)n2ncnc2n1 (centres unmarked) | -0.31%
5 | CNC(=O)COc1ccc(Nc2nnc(-c3ccc(C)c(S(N)(=O)=O)c3)c3ccccc23)cc1 | 15.4%
6 | CC(=O)N1CCN(c2ccc(NC(=S)NC(=O)/C=C/c3ccccc3)cc2)CC1 | 10.1%
7 | CN1/C(=C\C=C2C(=O)NC(=O)NC2=O)C(C)(C)c2ccccc21 | 30.9%
8 | C=CCn1c(-c2cccnc2)n[nH]c1=S | 24.2%
9 | Cc1nc(C)c(-c2ccc(SCc3ccccc3C)nn2)s1 | 7.77%
10 | C=CCOc1ccc(/C=C/C(=O)OCC(=O)NCCc2ccccc2)cc1 | 8.61%
11 | O=C(NCc1ccccc1F)C(=O)NCC1CCCN1S(=O)(=O)c1ccccc1 (centres unmarked) | -18.8%
12 | CN(CC(=O)NC1CC(C)(C)NC(C)(C)C1)S(=O)(=O)c1cc(Cl)ccc1Cl | -21.1%
13 | CCCNC(=O)C1CC(=O)N(c2ccc(OCC(=O)Nc3cccc(C)c3C)cc2)C1 (centres unmarked) | 3.29%
14 | CC(=O)Nc1cc(C(=O)N2CCN(C)CC2)ccc1S(=O)(=O)c1ccc(C)cc1 | -0.915%
15 | C=CCn1c(SCc2cccc(C#N)c2)nnc1-c1ccccc1O | -30.4%
16 | CC(C)Oc1ccc(CNC(=O)c2ccc3nc(N4CCOCC4)sc3c2)cc1 | 11.3%
17 | Cc1cc(/C(N)=N/OC(=O)Nc2ccc(Cl)cc2)no1 | -3.15%
18 | CC1CN(CC(O)COCc2ccc3c(c2)OCO3)CC(C)O1.Cl (centres unmarked) | -12.2%
19 | CCCC/C([O-])=N\S(=O)(=O)c1ccc(N=NN(C)C)cc1.[K+] | 1.26%
20 | CC(CN1CCCCC1)C(=O)NN (centres unmarked) | 43.3%
21 | CCOCN(C(=O)Cn1c(CO)nc2ccccc21)c1c(C)cccc1CC | 0.0819%
22 | CCOC(=O)/C(C#N)=C(/C)c1ccc(OC)cc1 | 4.78%

Row | Compound | hERG current change (%, negative = inhibition) at 10uM
23 | CC(=O)NNC(=O)c1ccncc1 | 6.06%
24 | COc1ccc(OCC(=O)Nc2nnc(-c3ccco3)s2)cc1 | 17.7%
25 | Cn1ncc(Br)c1C(=O)Nc1ccc(Br)cn1 | 16.6%
26 | Cc1ccccc1N1C(=O)CC(N2CCC(C(N)=O)CC2)C1=O (centres unmarked) | 0.665%
27 | COc1ccc(OC)c(S(=O)(=O)Nc2ccc3oc4c(c3c2)C(=O)CCC4)c1 | -9.85%
28 | Cc1ccc(C(=O)CSc2nsc(C)c2C#N)cc1 | 9.47%
29 | O=C(CNCc1ccccc1)Nc1ccc(Oc2ccccc2)cc1 | -18.7%
30 | O=C(O)c1ccc(-c2nc3scc(-c4ccccc4)c3c(=O)[nH]2)cc1 | 1.8%
31 | Cc1cc(C)cc(NC(=O)CSc2nc(=O)n(CCCN3CCOCC3)c3c2CCCC3)c1 | -55.2%
32 | Cc1cc(C)cc(C(=O)NC(=S)Nc2ccc(Cc3ccncc3)cc2)c1 | 11.5%
33 | CCOCCCNC(=O)c1ccc(Cn2c(=S)[nH]c3c([nH]c4ccc(OC)cc43)c2=O)cc1 | 18.9%
34 | CCOc1cc2[nH]c(=S)n(Cc3ccc(C(=O)NCCCN(CC)CC)cc3)c(=O)c2cc1OCC | 3.49%
35 | CC(Sc1nnc(-c2ccccc2F)n1C1CC1)C(=O)NCc1ccco1 (centres unmarked) | -35%
36 | CCOC(=O)C1CCN(/C=C2/C(=O)NC(=O)N(c3cccc(C)c3C)C2=O)CC1 | 7.79%
37 | CC(=O)c1cc(CN2CCC(n3nccc3NC(=O)c3ccccc3Cl)CC2)cs1 | -56.5%
38 | COc1ccc2nc(-c3ccccc3)cc(C(=O)OCC(=O)N3CCCCC3)c2c1 | 0.331%
39 | Cn1nnnc1SCC(=O)NCc1ccco1 | -8.74%
40 | COc1cc2c(cc1NC(=S)Nc1cccc(C)c1)oc1ccccc12 | 13.2%
41 | COc1ccc(Cl)cc1NC(=O)CNCC(c1ccccc1)N(C)C.O=C(O)C(=O)O (centres unmarked) | -73.9%
42 | CCCNC(=O)C1Cc2cc(S(=O)(=O)N3CCCC3)ccc2N1C(C)=O (centres unmarked) | 18.4%
43 | COc1ccc(S(=O)(=O)Nc2cc(C)on2)cc1NC(C)=O | 14%
44 | CC1(C)CC(=O)C2=C(C1)OC(N)=C(C#N)C2c1ccoc1 (centres unmarked) | 5.85%
